This is one part of the list.
Target: T1, OsWOX13 (Oryza sativa, UniProt Q5QMM3 1-267)
T1 sequence: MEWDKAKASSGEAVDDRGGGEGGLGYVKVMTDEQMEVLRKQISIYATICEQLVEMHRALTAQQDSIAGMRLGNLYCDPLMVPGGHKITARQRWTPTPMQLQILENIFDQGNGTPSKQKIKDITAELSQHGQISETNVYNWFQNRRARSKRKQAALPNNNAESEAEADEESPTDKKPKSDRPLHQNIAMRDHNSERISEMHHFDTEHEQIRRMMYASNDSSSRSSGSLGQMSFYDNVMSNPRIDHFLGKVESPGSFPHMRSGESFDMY
Experiment: protein-binding microarray (RPBM); PBS, 2% BSA, 51.3 ng/ul salmon testes DNA, 50 uM zinc acetate, 200 nM TF, 25 C, 1 h; high values mean tight binding
Conditions: protein: recombinant; tags: N-terminal polyhistidine and DsRed monomer fusion (pET32a); label: CyDye5-dUTP incorporated in the synthesized complementary strand; 3' TTTTT single-stranded linker to array surface; dsDNA, one strand shown
In short: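 For the binding signal, per-feature fluorescence intensity was read in arbitrary units on an Axon 4000B scanner. Before scanning, a 2% BSA-blocked custom Agilent array made double-stranded with Cy5-dUTP was washed after 1 h at 25 °C with 200 nM protein and 50 µM zinc acetate. The proteins were Ni–NTA-purified transcription factors with N-terminal polyhistidine and DsRed fusions, expressed in E. coli BL21-CodonPlus.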

Sequence	binding signal
CTAAACGCATATAATAAATTCATCAATCTCTCGAATGTGCCGGAGTCACCTAGTGCAG	3750 fluorescence intensity (a.u.)
GTGTAATTACATGTAGTGTAACTATATTATACATTTGAAACGGAGTCACCTAGTGCAG	6600 fluorescence intensity (a.u.)
TCAGGCTAACCATTCAATCATGACGTAAGAATATAACAAACGGAGTCACCTAGTGCAG	6850 fluorescence intensity (a.u.)
TCGTCAATCTTAAAATATATCGGTCCAATCTTTGAAAGATCGGAGTCACCTAGTGCAG	4030 fluorescence intensity (a.u.)
AGTTACTTTGTCCAATTAATTTGCTTGTCTCGACGAGAGACGGAGTCACCTAGTGCAG	10600 fluorescence intensity (a.u.)
AATAATTGACGATGACTATACACGCACAATGCATCCCGGCCGGAGTCACCTAGTGCAG	46600 fluorescence intensity (a.u.)
GTGCTTAAATGATTAATCTATGGTCCAAATTATATTTCTCCGGAGTCACCTAGTGCAG	23100 fluorescence intensity (a.u.)
ATGTATAATCATGTATGTGGATAATTGTAGCCAACTCGTACGGAGTCACCTAGTGCAG	8280 fluorescence intensity (a.u.)
GTTGACAGTCAGTGGATTCAGAATTTCAGATTGACCTAAACGGAGTCACCTAGTGCAG	7030 fluorescence intensity (a.u.)
CATAGGTGATCAAATCAATCAGTTGGGTCTGTTGGGTGGGCGGAGTCACCTAGTGCAG	24100 fluorescence intensity (a.u.)
CCAAAATTTGATAGAATCTATTCCGAAGCGTCCAATGTTTCGGAGTCACCTAGTGCAG	33400 fluorescence intensity (a.u.)
GTGATTATGATGAATAAGAGCAATGACCGGCTTCGGCCAACGGAGTCACCTAGTGCAG	7120 fluorescence intensity (a.u.)
ATCCCCAAAACTGATTAGAACACGTCGTGTATCGATGGGGCGGAGTCACCTAGTGCAG	10500 fluorescence intensity (a.u.)
TTTGACAATGGCAAAATGTCAATTTTCTCCCATCCCGCGACGGAGTCACCTAGTGCAG	8540 fluorescence intensity (a.u.)
ATTAAAATTATGAAATTTTAATGATTCATTAATCTCAAGACGGAGTCACCTAGTGCAG	14100 fluorescence intensity (a.u.)
TCCCCACTGAACTTAACAGACTGACAGTCACATTTACTGTCGGAGTCACCTAGTGCAG	5760 fluorescence intensity (a.u.)
TATTTCAATCACAGGGAAGTAGACCATTTCAGGAACGCAACGGAGTCACCTAGTGCAG	22900 fluorescence intensity (a.u.)
AGTTTCAGATAGGAAAATTGACGCATTCGATGACAGTGTTCGGAGTCACCTAGTGCAG	4020 fluorescence intensity (a.u.)
TTGATGACTGGCTCATAATGTTCTGTAATCTATTCTATACCGGAGTCACCTAGTGCAG	19500 fluorescence intensity (a.u.)
ATCCCACCTACTATCATTGTTAATTTGCAAATTATCCCTTCGGAGTCACCTAGTGCAG	5320 fluorescence intensity (a.u.)
ATCATAATGATAGAAAGATGCCGAAGGGACATAGGCCCATCGGAGTCACCTAGTGCAG	7430 fluorescence intensity (a.u.)
ATGATTTAAAATGACATCAAAGTGAAAGTTAAGGGATCTCCGGAGTCACCTAGTGCAG	7770 fluorescence intensity (a.u.)
TCTTGCATTGACAGCCGCATCCACCCTATATATGAATCAACGGAGTCACCTAGTGCAG	3660 fluorescence intensity (a.u.)
